This note sets out measurements from the supplement of paper PMC11876631.

± gives the standard deviation of the averaged measurements. Laboratory Escherichia coli strains with one amino-acid change in an essential protein, pooled on minimal glucose agar with carbenicillin or gentamicin at twice the control MIC (plus kanamycin and chloramphenicol for the plasmids), 48 h. Fold change of barcode share against drug-free plates; higher = less susceptible. Active = above 20 in both replicates (the paper's putatively resistant). '<' = one read or none on drug, '>' = one read or none on a drug-free plate. Shares are relative, so most strains fall below 1 when a few take over. Listed are strains with at least 15 reads on both drug-free plates, and hits; most hits rest on fewer reference reads. Replicate rank correlation about 0.5. Edits are read from barcodes. Where only a bound is given, the exact number is not on record here.

Sequences and labels used below:
B1: hisA L46W (protein)
chain: MIIPALDLIDGTVVRLHQGDYGKQRDYGNDPLPRLQDYAAQGAEVWHLVDLTGAKDPAKRQIPLIKTLVAGVNVPVQVGGGVRSEEDVAALLEAGVARVVVGSTAVKSQDMVKGWFERFGADALVLALDVRIDEQGNKQVAVSGWQENSGVSLEQLVETYLPVGLKHVLCTDISRDGTLAGSNVSLYEEVCARYPQVAFQSSGGIGDIDDVAALRGTGVRGVIVGRALLEGKFTVKEAIACWQNA
B2: hisA V211A (protein)
chain: MIIPALDLIDGTVVRLHQGDYGKQRDYGNDPLPRLQDYAAQGAEVLHLVDLTGAKDPAKRQIPLIKTLVAGVNVPVQVGGGVRSEEDVAALLEAGVARVVVGSTAVKSQDMVKGWFERFGADALVLALDVRIDEQGNKQVAVSGWQENSGVSLEQLVETYLPVGLKHVLCTDISRDGTLAGSNVSLYEEVCARYPQVAFQSSGGIGDIDDAAALRGTGVRGVIVGRALLEGKFTVKEAIACWQNA
B3: hisA L126A (protein)
chain: MIIPALDLIDGTVVRLHQGDYGKQRDYGNDPLPRLQDYAAQGAEVLHLVDLTGAKDPAKRQIPLIKTLVAGVNVPVQVGGGVRSEEDVAALLEAGVARVVVGSTAVKSQDMVKGWFERFGADALVAALDVRIDEQGNKQVAVSGWQENSGVSLEQLVETYLPVGLKHVLCTDISRDGTLAGSNVSLYEEVCARYPQVAFQSSGGIGDIDDVAALRGTGVRGVIVGRALLEGKFTVKEAIACWQNA
B4: hisA I208Q (protein)
chain: MIIPALDLIDGTVVRLHQGDYGKQRDYGNDPLPRLQDYAAQGAEVLHLVDLTGAKDPAKRQIPLIKTLVAGVNVPVQVGGGVRSEEDVAALLEAGVARVVVGSTAVKSQDMVKGWFERFGADALVLALDVRIDEQGNKQVAVSGWQENSGVSLEQLVETYLPVGLKHVLCTDISRDGTLAGSNVSLYEEVCARYPQVAFQSSGGIGDQDDVAALRGTGVRGVIVGRALLEGKFTVKEAIACWQNA
B5: hisA I208W (protein)
chain: MIIPALDLIDGTVVRLHQGDYGKQRDYGNDPLPRLQDYAAQGAEVLHLVDLTGAKDPAKRQIPLIKTLVAGVNVPVQVGGGVRSEEDVAALLEAGVARVVVGSTAVKSQDMVKGWFERFGADALVLALDVRIDEQGNKQVAVSGWQENSGVSLEQLVETYLPVGLKHVLCTDISRDGTLAGSNVSLYEEVCARYPQVAFQSSGGIGDWDDVAALRGTGVRGVIVGRALLEGKFTVKEAIACWQNA
B6: hisA L46P (protein)
chain: MIIPALDLIDGTVVRLHQGDYGKQRDYGNDPLPRLQDYAAQGAEVPHLVDLTGAKDPAKRQIPLIKTLVAGVNVPVQVGGGVRSEEDVAALLEAGVARVVVGSTAVKSQDMVKGWFERFGADALVLALDVRIDEQGNKQVAVSGWQENSGVSLEQLVETYLPVGLKHVLCTDISRDGTLAGSNVSLYEEVCARYPQVAFQSSGGIGDIDDVAALRGTGVRGVIVGRALLEGKFTVKEAIACWQNA
B7: hisA V224A (protein)
chain: MIIPALDLIDGTVVRLHQGDYGKQRDYGNDPLPRLQDYAAQGAEVLHLVDLTGAKDPAKRQIPLIKTLVAGVNVPVQVGGGVRSEEDVAALLEAGVARVVVGSTAVKSQDMVKGWFERFGADALVLALDVRIDEQGNKQVAVSGWQENSGVSLEQLVETYLPVGLKHVLCTDISRDGTLAGSNVSLYEEVCARYPQVAFQSSGGIGDIDDVAALRGTGVRGVIAGRALLEGKFTVKEAIACWQNA
B8: hisA L46Q (protein)
chain: MIIPALDLIDGTVVRLHQGDYGKQRDYGNDPLPRLQDYAAQGAEVQHLVDLTGAKDPAKRQIPLIKTLVAGVNVPVQVGGGVRSEEDVAALLEAGVARVVVGSTAVKSQDMVKGWFERFGADALVLALDVRIDEQGNKQVAVSGWQENSGVSLEQLVETYLPVGLKHVLCTDISRDGTLAGSNVSLYEEVCARYPQVAFQSSGGIGDIDDVAALRGTGVRGVIVGRALLEGKFTVKEAIACWQNA
B9: hisA L48Q (protein)
chain: MIIPALDLIDGTVVRLHQGDYGKQRDYGNDPLPRLQDYAAQGAEVLHQVDLTGAKDPAKRQIPLIKTLVAGVNVPVQVGGGVRSEEDVAALLEAGVARVVVGSTAVKSQDMVKGWFERFGADALVLALDVRIDEQGNKQVAVSGWQENSGVSLEQLVETYLPVGLKHVLCTDISRDGTLAGSNVSLYEEVCARYPQVAFQSSGGIGDIDDVAALRGTGVRGVIVGRALLEGKFTVKEAIACWQNA
B10: hisA I208P (protein)
chain: MIIPALDLIDGTVVRLHQGDYGKQRDYGNDPLPRLQDYAAQGAEVLHLVDLTGAKDPAKRQIPLIKTLVAGVNVPVQVGGGVRSEEDVAALLEAGVARVVVGSTAVKSQDMVKGWFERFGADALVLALDVRIDEQGNKQVAVSGWQENSGVSLEQLVETYLPVGLKHVLCTDISRDGTLAGSNVSLYEEVCARYPQVAFQSSGGIGDPDDVAALRGTGVRGVIVGRALLEGKFTVKEAIACWQNA
B11: hisA I208A (protein)
chain: MIIPALDLIDGTVVRLHQGDYGKQRDYGNDPLPRLQDYAAQGAEVLHLVDLTGAKDPAKRQIPLIKTLVAGVNVPVQVGGGVRSEEDVAALLEAGVARVVVGSTAVKSQDMVKGWFERFGADALVLALDVRIDEQGNKQVAVSGWQENSGVSLEQLVETYLPVGLKHVLCTDISRDGTLAGSNVSLYEEVCARYPQVAFQSSGGIGDADDVAALRGTGVRGVIVGRALLEGKFTVKEAIACWQNA
B12: hisA I9W (protein)
chain: MIIPALDLWDGTVVRLHQGDYGKQRDYGNDPLPRLQDYAAQGAEVLHLVDLTGAKDPAKRQIPLIKTLVAGVNVPVQVGGGVRSEEDVAALLEAGVARVVVGSTAVKSQDMVKGWFERFGADALVLALDVRIDEQGNKQVAVSGWQENSGVSLEQLVETYLPVGLKHVLCTDISRDGTLAGSNVSLYEEVCARYPQVAFQSSGGIGDIDDVAALRGTGVRGVIVGRALLEGKFTVKEAIACWQNA
B13: hisA L48A (protein)
chain: MIIPALDLIDGTVVRLHQGDYGKQRDYGNDPLPRLQDYAAQGAEVLHAVDLTGAKDPAKRQIPLIKTLVAGVNVPVQVGGGVRSEEDVAALLEAGVARVVVGSTAVKSQDMVKGWFERFGADALVLALDVRIDEQGNKQVAVSGWQENSGVSLEQLVETYLPVGLKHVLCTDISRDGTLAGSNVSLYEEVCARYPQVAFQSSGGIGDIDDVAALRGTGVRGVIVGRALLEGKFTVKEAIACWQNA
B14: hisA I9A (protein)
chain: MIIPALDLADGTVVRLHQGDYGKQRDYGNDPLPRLQDYAAQGAEVLHLVDLTGAKDPAKRQIPLIKTLVAGVNVPVQVGGGVRSEEDVAALLEAGVARVVVGSTAVKSQDMVKGWFERFGADALVLALDVRIDEQGNKQVAVSGWQENSGVSLEQLVETYLPVGLKHVLCTDISRDGTLAGSNVSLYEEVCARYPQVAFQSSGGIGDIDDVAALRGTGVRGVIVGRALLEGKFTVKEAIACWQNA
B15: argH F259A (protein)
chain: MALWGGRFTQAADQRFKQFNDSLRFDYRLAEQDIVGSVAWSKALVTVGVLTAEEQAQLEEALNVLLEDVRARPQQILESDAEDIHSWVEGKLIDKVGQLGKKLHTGRSRNDQVATDLKLWCKDTVSELLTANRQLQSALVETAQNNQDAVMPGYTHLQRAQPVTFAHWCLAYVEMLARDESRLQDALKRLDVSPLGCGALAGTAYEIDREQLAGWLGFASATRNSLDSVSDRDHVLELLSAAAIGMVHLSRFAEDLIFANTGEAGFVELSDRVTSGSSLMPQKKNPDALELIRGKCGRVQGALTGMMMTLKGLPLAYNKDMQEDKEGLFDALDTWLDCLHMAALVLDGIQVKRPRCQEAAQQGYANATELADYLVAKGVPFREAHHIVGEAVVEAIRQGKPLEDLPLSELQKFSQVIDEDVYPILSLQSCLDKRAAKGGVSPQQVAQAIAFAQARLG
B16: hisF V127Q (protein)
chain: MLAKRIIPCLDVRDGQVVKGVQFRNHEIIGDIVPLAKRYAEEGADELVFYDITASSDGRVVDKSWVSRVAEVIDIPFCVAGGIKSLEDAAKILSFGADKISINSPALADPTLITRLADRFGVQCIVQGIDTWYDAETGKYHVNQYTGDESRTRVTQWETLDWVQEVQKRGAGEIVLNMMNQDGVRNGYDLEQLKKVREVCHVPLIASGGAGTMEHFLEAFRDADVDGALAASVFHKQIINIGELKAYLATQGVEIRIC
B17: hisF V127D (protein)
chain: MLAKRIIPCLDVRDGQVVKGVQFRNHEIIGDIVPLAKRYAEEGADELVFYDITASSDGRVVDKSWVSRVAEVIDIPFCVAGGIKSLEDAAKILSFGADKISINSPALADPTLITRLADRFGVQCIVDGIDTWYDAETGKYHVNQYTGDESRTRVTQWETLDWVQEVQKRGAGEIVLNMMNQDGVRNGYDLEQLKKVREVCHVPLIASGGAGTMEHFLEAFRDADVDGALAASVFHKQIINIGELKAYLATQGVEIRIC

For one series, the target named is Escherichia coli (laboratory strain). Kind of series: barcode share on antibiotic plates over drug-free plates; higher = less susceptible. The settings on record: antibiotic: carbenicillin; 2× MIC (3.1 µg/mL). How it is done: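 A pool of E. coli strains, each edited to carry one amino-acid change in an essential protein, was grown for 48 h on minimal glucose agar with or without antibiotic; strain barcodes were sequenced; mean of two replicates.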
As to B1, the “fold change of barcode share” value came to 3.78 ± 2.3.

With B2, the “fold change of barcode share” value was determined as 2.51 ± 0.8.

Turning to B3, the “fold change of barcode share” value turned out to be 3.74 ± 0.64. On the same count and under the same terms, for B4 the value was 0.63 ± 0.11.

Take B5: the “fold change of barcode share” value came out at 0.486 ± 0.1. Same read-out and setting: for B6 the value was 7.28 ± 2.6.

As for B7, the “fold change of barcode share” value is 1.09 ± 0.22. Regarding B8, the “fold change of barcode share” value worked out at 0.898 ± 0.023. B9: the “fold change of barcode share” value is 61.1 [active]. The same measure, in the same setting: the figure for B10 is 0.951 ± 0.7; for B11 it is 0.483 ± 0.12. B12: the “fold change of barcode share” value was 0.543 ± 0.16. The same measure, in the same setting: the figure for B13 is 0.764 ± 0.018; for B14 it is 1.56 ± 0.26. On the same count and under the same terms, for B15 the value was 4.62 ± 6. For B16, the “fold change of barcode share” value turned out to be 0.628 ± 0.03. With B17, the “fold change of barcode share” value came to 0.607 ± 0.23.

The same series, now with this note: antibiotic: gentamicin; 2× MIC (MIC 0.45 µg/mL).
As for B1, the “fold change of barcode share” value came out at 0.08982 ± 6.1e-05. On the same count and under the same terms, for B2 the value was 0.0464 ± 0.0072. B4: the “fold change of barcode share” value amounted to 0.0103 ± 0.0057.

Turning to B5, the “fold change of barcode share” value was 0.0279 ± 0.015. The same measure, in the same setting: for B7 the value was 0.45 ± 0.62; for B8, 0.0147 ± 0.0039. As for B10, the “fold change of barcode share” value was below 0.015. Same read-out and setting: the figure for B11 is 1.74 ± 0.26; for B12 it is below 0.0091.

Turning to B13, the “fold change of barcode share” value turned out to be 0.377 ± 0.098. B14: the “fold change of barcode share” value is below 0.0115. On the same count and under the same terms, the figure for B15 is below 0.0208; for B16 it is 0.0199 ± 0.0069.
